This is one part of the list. At the low end of the ranking, values are background and their order means little. The protein was read in a cell extract, so binding may be indirect.

The assay concerns the target T1, HNF4alpha2 (COS-7 nuclear extract) (UniProt P41235).
T1 sequence: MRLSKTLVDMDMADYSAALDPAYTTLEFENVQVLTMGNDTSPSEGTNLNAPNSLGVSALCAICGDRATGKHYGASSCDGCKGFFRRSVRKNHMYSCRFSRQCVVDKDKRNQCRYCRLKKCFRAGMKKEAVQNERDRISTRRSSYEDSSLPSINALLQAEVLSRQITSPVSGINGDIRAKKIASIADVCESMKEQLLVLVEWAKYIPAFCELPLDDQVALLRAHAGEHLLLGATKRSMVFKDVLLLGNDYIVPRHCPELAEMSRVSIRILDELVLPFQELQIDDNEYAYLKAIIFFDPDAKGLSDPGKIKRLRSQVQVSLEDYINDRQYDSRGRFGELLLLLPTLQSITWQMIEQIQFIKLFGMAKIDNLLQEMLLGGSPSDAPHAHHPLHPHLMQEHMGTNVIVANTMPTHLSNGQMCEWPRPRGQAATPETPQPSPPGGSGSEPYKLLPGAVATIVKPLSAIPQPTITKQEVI
Nature of the assay: protein-binding microarray. The following applies: COS-7 nuclear extract on double-stranded Agilent 4x180k PBM; binding buffer, salt, pH and temperature not given; high values mean tight binding; double strand, one strand shown; sequences stand for … in …GCCTAGGGAGATTAGAGTATCGGTCGA
With CAAGCTGACAAACATGTATCAGTGATAGAC, the binding signal (log2 normalized intensity) worked out at 0.561.
Under CTAAAGGAAGGGAGGTGAGTGCTAGCATTG stands -1.12; under ACAGCAGGCTCACAAGATTGCATTCTTTGA, -1.14; under CTCTCCTATTCAGGTATTTGCTCTGTGATA, 0.775.
As for CTGCTTCCAAAACATTGTAGAATTATCCAG, the figure is -0.609; as for CTGTTCGATGTATACAGTATCTATAGTTAT, 1.28.
Regarding GTCTTGAGCGCAAATGATCAAAGGTCGGTT, the binding signal (log2 normalized intensity) is 5.6.
For the sequence TTCAGTCTTTGTCTTAGCCTGCTCTTTTCC, the binding signal (log2 normalized intensity) is 1.59.
Under ATCTTAGCTTCAGCTTTGCTTAGACCGGCA stands -0.98; under CAAAGGTTGGACTGAGGACCACATGAGTAA, -0.0147.
As for AAGGAAACTGCTTGGGCCCCTCCCTCACAC, the figure is 2.15; as for CTTGCCCAAGGGCATGGGAAGCAGTGAGGG, -1.19; as for CAACGGTGAGTCAAGCACTTCTCACATCAC, -1.08.
As for GATAGGCAAAGTGGCTAGGACCTTTGAACC, the figure is 6.41; as for TTCCTCCCACTCTGACATCCCCCTTTCTCT, 3.26.
Regarding CCCCCATTTGGTAATGGGCCCCCATTACCA, the binding signal (log2 normalized intensity) is 3.87.
As for CTGAATGAGCTCTGGGGTCCTCTGCTGCCC, the figure is 0.313; as for TATTTTAAGTTGCAATGCATGCTGCCAAAC, -1.18.
As for CCATCCTCCCACCTCAGCCTCTTGAGTAGC, the figure is 1.8; as for ACTTGGCTCACATGATTGTGGAGGATGGGA, 0.412; as for TCATTTCTGCTTGCAACCAAAGGAGTCCTG, 0.346.
Under GATTAAAAGCACATAAGAGAAAAATCTTCA stands -1.06; under AAGGGTCAGCCTGCAAGTTAGGACAGCCCC, 1.15.
With TAAAAGGTAACATCAAAGCCAGGACTTCTA, the binding signal (log2 normalized intensity) is -1.04.
Under CCTCCATTAACTAACCTTTGAACCAGATGG stands 4.77; under ATGCAATTTCTGAGAGAGAAAGAGACAGAG, -1.2.
With TCAGGTTTCAAATACTCCAGTCATTGTACA, the binding signal (log2 normalized intensity) was determined as 1.4.
As for CACTTTAGGTGCTCTTGGCTAAGACAGGGG, the figure is -0.552; as for CCTTTGTATATTCCCTTTGTATGGCAGGGG, 2.35.
As for GGACTTTGTGCAAATGGAAAATTGTAATCT, the figure is 2.01; as for TACAGTTCTGGAGGTGAGAAGCCTGAAATG, -1.02.
As for GAAATGTAGTGACAGAAGGGAGAGTCCAAG, the figure is 0.403.
For AAGAATTCTTTCTCAAATATGTTTAACCTG, the binding signal (log2 normalized intensity) was found to be 0.554.
Under TTAAGAAGTAGGTGTGCCTCCTCCATCTCC stands -0.669; under ATAAGGCGTAGTTCAGAGAAAACGAGGCAC, -0.416; under CGCTTTCATGAGATGAAAGCTTCTGCGGAA, -0.524.
Under TAAAGTCTACAAGTGGATATTCAGACCTCT stands 0.192; under CCCTTCCTGGCCAACATCCAGGCCTGGCAG, -1.17; under TGCAAGTACGATTGGCTGGACATCTGGGAT, 0.438.
As to TGCTTTCTTATCTGGGGGCCATTCCTCTAT, the binding signal (log2 normalized intensity) was 1.1.
As for TTAATGCCTGGGAACACAATAGGAATTCAA, the figure is -1.06; as for AGTCCAGCTGTGCCCCAGTCCTTCAGTCCT, -0.997; as for ACTTAAAAGAAGCTACTAGCAAATCTGCCC, -1.17.
For the sequence ATGACCCTAATGGGGTACTTGAACCCTACT, the binding signal (log2 normalized intensity) stood at 3.14.
With CCAGTGGAATGCAAATATAGAAATAAAAGA, the binding signal (log2 normalized intensity) is -0.843.
As for TGCAGATAAGCCACGAGCCTGCCTGCTCCT, the figure is -1.32; as for GTTCCAAACCTACACAGACCCTCTTTTCTT, -0.893.
Take AGATGGATTACATGGGAGATAGAGCAGTGG: the binding signal (log2 normalized intensity) is -1.07.
As for AACAGCTGTGCCATGCTTTTCAGTGCAAGG, the binding signal (log2 normalized intensity) is -0.983.
As for GCGCCGGGGGGACGCGCTTGGGCGACGGAC, the figure is -1.1; as for AGATACTATAATTAGAATCTGCAGGATCCC, -0.951; as for ACATTGGAATGCGGGCTCCACCACTTGCTC, -1.13.
Under ATCATAGTGTTTGCCTTATTTGAACACAGT stands 2.31; under CCTCCCCCTTGGTGTTTAAACACATTTTTT, 2.14.
On to ACCGGCAGAGAGAAGCCACTGCGACCTTTG, for which the binding signal (log2 normalized intensity) stood at 4.92.
As for GGAGGTTATCTTGGGGCTGATGTCTTTCTG, the figure is 1.47; as for AGTTGGTTGGAGCTATGGGCAGAAAAAAAT, 0.323; as for TAAAGTCCGAACCTGCCAAAGAAGAAAACA, -1.09.
As for CCTTTGAAGTGGGGGTGAGTCAGTCCCCAG, the figure is 1.8; as for AGAGCATGAGAACTTCTTCCAATGAAAGGT, -1.02; as for ACGGTGCAGGGAGGATATCCCTCCGCCTCC, -1.03.
Under CTTCCACCAGGGCTAGACCCGTCAGCCCTG stands -0.982.
In the case of GGGCCTCCATATTTGGAAGTAAGAACCCCA, the binding signal (log2 normalized intensity) was found to be 1.69.
With AAAGAGCCATGGACTGCTGACCTTTGAACC, the binding signal (log2 normalized intensity) came to 9.3.
Consider GTCATTGATGAAACTCCTTCCCTTTCATGT, for which the binding signal (log2 normalized intensity) stood at 1.5.
For the sequence AATCAAACTGAACTTTGAAACAAGCCCATC, the binding signal (log2 normalized intensity) amounted to 2.87.
As for ACGCAAGCGAGTAAGGCCCGTGAGATTGAA, the figure is -0.911.
With CAGACCTTTGCCCTTTGTTTACATAGCTCC, the binding signal (log2 normalized intensity) amounted to 3.7.
Under CCTCTGCCTCTTGACCCCTTGGCCCCGCTG stands 4.36; under GTAGACTAACGTATGGACTTTCTGATGTCA, 1.66; under GCAGTTTCTGCTATCTGCCTGCAGGAGAGA, -1.2.
As for CTGAACTTTAAACTGGTGTGTCTTGCCTTT, the figure is 2.06.
In the case of CCTACTCATTCATATCACCTAGGTGGAATC, the binding signal (log2 normalized intensity) stood at 1.68.

The values are drawn from article PMC10726135.
